# Measurements: the supplement of paper PMC3334620
# The full ranking holds about 33,000 sequences; the median of “E-score (-0.5 to 0.5)” is about -0.013, and the highest 2% start at about 0.3. The list shows a part of the results.
# Molecular target: T1, Msn1 (UniProt P22148)
# T1 sequence: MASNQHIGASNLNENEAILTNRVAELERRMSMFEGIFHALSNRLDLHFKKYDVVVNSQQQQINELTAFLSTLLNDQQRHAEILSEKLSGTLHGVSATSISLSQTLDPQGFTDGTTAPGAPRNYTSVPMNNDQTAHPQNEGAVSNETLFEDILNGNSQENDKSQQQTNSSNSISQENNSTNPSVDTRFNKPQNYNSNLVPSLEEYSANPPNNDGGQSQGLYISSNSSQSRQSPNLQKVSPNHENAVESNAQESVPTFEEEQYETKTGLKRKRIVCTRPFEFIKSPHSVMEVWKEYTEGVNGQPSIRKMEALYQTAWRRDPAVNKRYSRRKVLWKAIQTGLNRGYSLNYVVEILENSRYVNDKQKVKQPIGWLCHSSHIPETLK
# Test: PBM E-score (8-mer binding enrichment) (E-score (-0.5 to 0.5)); higher = stronger / more preferred TF binding; most listed sequences are background and not binding sites
# Settings: protein concentration: 200 nM; construct: GST-full length
# Method: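 Universal 'all 10-mer' protein binding microarrays (Agilent AMADID 015681) probed with GST-tagged S. cerevisiae TFs (full-length or DBD) made by in vitro transcription/translation (PURExpress), about 100-200 nM. Bound TF was detected with fluorescent anti-GST. Each ungapped 8-mer (which stands for itself and its reverse complement) is scored by the PBM enrichment score (E-score), a modified Wilcoxon-Mann-Whitney statistic from -0.5 to +0.5, computed with the Universal PBM Analysis Suite. Scale: above 0.35 generally sequence-specific binding.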
row,Sequence,PBM E-score
1,GAACACGC,-0.0425
2,GTCCTAGA,0.342
3,AAACCATG,0.0343
4,TGACGTCA,0.278
5,ACCTTTCA,-0.0241
6,ACGCGGCG,0.0154
7,GACGATCC,-0.107
8,CTATGGGA,-0.156
9,AAGTGCCC,-0.173
10,ACATACGC,0.149
11,ATGATACA,0.13
12,AAATACTT,0.116
13,GGCGTAAC,-0.299
14,AACCCGCT,-0.0999
15,ACTGAATA,0.00919
16,CGAGGTAA,0.0444
17,TCCGGCAA,0.128
18,CTTAGGTA,0.0762
19,AGAGACCA,-0.256
20,AACGACTA,0.0622
21,TAACTAGA,0.113
22,AATAATGG,-0.0233
23,CAATCACG,0.0396
24,TGTAAGAA,0.0929
25,ATAAACAG,-0.0233

row,Sequence,PBM E-score
1,CGGTTATC,0.0117
2,GGTAGATA,0.00672
3,GCTACAGC,-0.194
4,ACTGCCGA,0.0458
5,CACACAAC,-0.0106
6,AAACAGTT,0.104
7,GATTGGCC,-0.138
8,GCCCCCCA,-0.401
9,ATGCTGCA,-0.161
10,ACTTTTCT,0.131
11,AAGACTCA,-0.112
12,AGTTGCAA,0.122
13,ACGCACTC,-0.0737
14,AGTAGCAT,-0.157
15,AAACTTGA,-0.0134
16,ACCGGCGT,0.0322
17,ATGAATGC,-0.0205
18,TCGCTACA,-0.254
19,CTCATAAC,-0.131
20,ATGACAAT,0.365
21,GAATGCTC,-0.075
22,CGCCTCTC,-0.345
23,CAGGCTGA,-0.204
24,CCACCAAC,-0.0306
25,TAAAGACA,0.356

row,Sequence,PBM E-score
1,ATCACAGG,-0.137
2,ACATGAAC,0.173
3,TGCTCCAA,0.0599
4,ACGAGCTG,0.0278
5,CCATAGGC,-0.0414
6,CAAGCGCA,0.185
7,CTTCTGAC,-0.103
8,ATACGTAG,-0.0938
9,GTTCTGCA,-0.00536
10,GAGCATAA,0.00338
11,AAATTTAA,0.238
12,AATTTCTG,0.164
13,ACTCAGCC,-0.215
14,CCGTGCTA,-0.28
15,TCTCGTAA,0.0717
16,GTATTCAC,0.218
17,AAACGTAC,0.0217
18,ATGCTACG,0.13
19,CCCAGTCG,-0.238
20,CGAAGACC,-0.0801
21,CTTTGAGC,-0.112
22,CTCTTAAG,0.0891
23,AGTCGCCA,-0.259
24,ATCCCCGG,-0.289
25,CATCGTCG,-0.161

row,Sequence,PBM E-score
1,ACTGCACA,-0.0484
2,ATGCCCAT,-0.138
3,GGGAAGAA,-0.27
4,ATAGGTCG,-0.0322
5,ACACAAGG,0.0619
6,ATCCTGCG,-0.0743
7,CATTATTC,0.0351
8,TCCTTCCA,-0.117
9,CTCACCGC,-0.159
10,GCACCCGC,-0.163
11,CGAATCGC,-0.211
12,AGGGTGAT,-0.1
13,AGTTAATA,0.221
14,AGACAGCT,-0.125
15,CACGAATG,0.104
16,CTTGAGAC,0.0475
17,CATGACCG,-0.0675
18,AGACCTCT,-0.182
19,ACGCCTTC,-0.0871
20,ATAGGTAA,-0.0187
21,CGCAAAAC,0.0323
22,ACTGCACT,0.0708
23,ATTGCAGG,-0.0367
24,TTTACAAA,0.12
25,ATTGAAAT,0.126

row,Sequence,PBM E-score
1,AGATGGTG,-0.161
2,TATGTAAA,0.0978
3,ATCATCAG,-0.0733
4,CCGGCGCG,-0.123
5,CGGTTGGA,-0.111
6,AACAAGCA,0.0339
7,CCGCTTCG,-0.115
8,AGTATCAA,0.217
9,CAACGCGA,0.154
10,ACGGACGC,-0.049
11,GAACGAGA,0.202
12,GTTGGCCA,-0.219
13,ACCGCGCA,-0.0548
14,CCACTACG,0.0309
15,GGTGGGCA,-0.0817
16,AAACGTCA,-0.057
17,ATTCGGTC,-0.0603
18,GAGACAGA,0.0976
19,CAGGGAGG,-0.355
20,CCACGACA,0.179
21,CTGTTATC,-0.0672
22,ACGCTGGA,-0.09
23,TAGTTGCA,0.0158
24,GATATTTA,0.125
25,CGTCAACC,-0.192

row,Sequence,PBM E-score
1,GCGGGTGA,-0.0547
2,GTTTTAAA,0.244
3,CAGAAGCG,0.00178
4,CGTGCGGC,-0.106
5,ACCGTAGC,-0.243
6,GTGTCCAA,0.389
7,GTAATTAC,0.133
8,ACCTCATG,-0.244
9,GCCGCAGC,-0.256
10,GGAGAATA,0.0546
11,CCTCCACG,-0.13
12,ATTTGCGA,0.0711
13,CGGGTAGA,-0.146
14,AAGGGGAG,-0.222
15,CATCACCA,0.0596
16,ACCTTTTC,0.0396
17,TCTAAAAA,0.136
18,CTGCAGTA,-0.128
19,GTTTGACA,0.0659
20,TGAAAGAA,0.229
21,CCCGCCGC,-0.159
22,ACGCACGT,-0.00608
23,ACGATAGA,-0.084
24,AGATCCGG,-0.022
25,CCATGTTC,0.0339

row,Sequence,PBM E-score
1,AAAAGAAT,0.245
2,GACGCGAA,0.0618
3,CGCGTACC,-0.138
4,TACGACAA,0.352
5,ATCGCGGA,0.03
6,GTGCGAAC,-0.203
7,AGCCTTTA,-0.0302
8,CTACAGTC,-0.0295
9,ACCACTCC,-0.0353
10,AGAAGATG,-0.132
11,ACAGGTAT,0.0494
12,ACATAACG,0.243
13,CCCCGTGC,-0.262
14,CCTTTATA,-0.142
15,AGAATGTA,0.167
16,CCCGAACA,0.181
17,GGTTGCAA,-0.0202
18,AACTGCTT,-0.0806
19,CGGAAATA,0.2
20,ATTGGTTA,0.00682
21,AATAGCCC,-0.212
22,ACGCCGCG,-0.0148
23,TACGCGGA,-0.106
24,AAGTACCT,0.0694
25,CGAAATTC,-0.0495

row,Sequence,PBM E-score
1,ACGATCAC,-0.107
2,ATGCTGGC,-0.104
3,CGTCCCGA,0.0488
4,CCCTAGAA,-0.0965
5,CAGAACGG,0.0739
6,ACACGTAT,0.125
7,AACCACCC,-0.0597
8,ACTGATCC,-0.00633
9,GACTATAA,0.0514
10,CAATTACG,0.00041
11,AATCACAG,0.00145
12,CTGAAACC,0.0588
13,AAACAAAT,0.199
14,GCAAAACC,-0.153
15,CTACCGAC,0.00655
16,AAAACGGT,0.00929
17,GCCCAGCC,-0.164
18,ATTTTGAC,0.248
19,GCCTCGAC,-0.148
20,ACGTAAGG,-0.0593
21,AGTGGGAG,-0.127
22,AGTGTCGC,0.0675
23,ATAGATAT,0.0389
24,ACAACCTG,0.0989
25,ATACACCA,0.0163

row,Sequence,PBM E-score
1,AGATCTAG,-0.119
2,AGCATACT,-0.0227
3,ATTTGATA,0.11
4,CTCGTACC,0.0312
5,CCATACTA,0.138
6,TCTACGAA,-0.0488
7,TCTGCAGA,0.227
8,GGCACACC,-0.319
9,CGACTAAG,0.00905
10,ATTTTCCC,0.11
11,GTATTTAA,0.0163
12,CAGGATGC,-0.0359
13,GAAAAGAA,-0.0386
14,AAGCATGC,-0.191
15,AGCTGTGC,-0.137
16,AGGGCCGA,-0.0423
17,CGGTAGCA,0.0348
18,ACGCGGCA,0.0334
19,AAGTAAAT,0.202
